This is one part of the list. Most values come without repeats; read them as rough.
Tested on: 501Mel
Assay: cell count relative to DMSO control; melanoma cells; higher = more viable cells
Conditions: library dose: low library concentration; 72 h
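Note: cell number obtained by counting DAPI-stained nuclei in high-throughput microscope images with image analysis software, screen run in 1,536-well plates.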

**Q.** Which cell count does the source give for `OCc1c[nH]c2ccccc12` [Indole-3-carbinol] + C[As](C)SC[C@H](NC(=O)CC[C@H](N)C(=O)O)C(=O)NCC(=O)O [Darinaparsin] (first compound 0.8 µM, partner dose 0.4 µM) here?
**A.** 134%

**Q.** For `C[C@@H](N)c1ccc(C(=O)Nc2ccnc3[nH]ccc23)cc1` + Cn1cc(C2=C(c3cn(C4CCN(Cc5ccccn5)CC4)c4ccccc34)C(=O)NC2=O)c2ccccc21 [Enzastaurin] (first compound 0.4 µM, partner dose 0.8 µM), which cell count is on record?
**A.** 80.8%

**Q.** With `O=C(Nc1cc(C(F)(F)F)cc(C(F)(F)F)c1)c1cc(Cl)ccc1O` + C[As](C)SC[C@H](NC(=O)CC[C@H](N)C(=O)O)C(=O)NCC(=O)O [Darinaparsin] (first compound 0.016 µM, partner dose 0.4 µM) as the compound, how does the cell count read?
**A.** 82%

**Q.** How did the cell count turn out when `COc1cc([C@@H]2c3cc4c(cc3[C@@H](O[C@@H]3O[C@@H]5CO[C@@H](C)O[C@H]5[C@H](O)[C@H]3O)[C@H]3COC(=O)[C@H]23)OCO4)cc(OC)c1O` [etoposide] + C[As](C)SC[C@H](NC(=O)CC[C@H](N)C(=O)O)C(=O)NCC(=O)O [Darinaparsin] (first compound 0.02 µM, partner dose 0.4 µM) was run?
**A.** 89.9%

**Q.** With `Cc1cn(-c2cc(NC(=O)c3ccc(C)c(Nc4nccc(-c5cccnc5)n4)c3)cc(C(F)(F)F)c2)cn1` [nilotinib] + C[C@]12O[C@H](C[C@]1(O)CO)n1c3ccccc3c3c4c(c5c6ccccc6n2c5c31)CNC4=O [Lestaurtinib] (first compound 0.2 µM, partner dose 0.004 µM) as the compound, how does the cell count read?
**A.** 98.5%

**Q.** For `Cn1cnc2c(F)c(Nc3ccc(Br)cc3Cl)c(C(=O)NOCCO)cc21` [selumetinib] + N.N.[Cl][Pt][Cl] [cisplatin] (first compound 0.015 µM, partner dose 1.6 µM), which cell count is on record?
**A.** 17.1%

**Q.** For `Cc1ccc(Nc2nccc(N(C)c3ccc4c(C)n(C)nc4c3)n2)cc1S(N)(=O)=O` [Pazopanib] + Cn1cc(C2=C(c3cn(C4CCN(Cc5ccccn5)CC4)c4ccccc34)C(=O)NC2=O)c2ccccc21 [Enzastaurin] (first compound 0.4 µM, partner dose 0.8 µM), which cell count is on record?
**A.** 97.2%

Tested on: A101D
Assay: as above
Conditions: library dose: low library concentration; 72 h

**Q.** With `CCCCCCCCCCCCCCCCCCOP(=O)([O-])OC1CC[N+](C)(C)CC1` [Perifosine] + N.N.[Cl][Pt][Cl] [cisplatin] (first compound 0.4 µM, partner dose 1.6 µM) as the compound, how does the cell count read?
**A.** 94.5%

**Q.** With `Cc1ccc(Nc2nccc(N(C)c3ccc4c(C)n(C)nc4c3)n2)cc1S(N)(=O)=O` [Pazopanib] + N.N.[Cl][Pt][Cl] [cisplatin] (first compound 0.4 µM, partner dose 1.6 µM) as the compound, how does the cell count read?
**A.** 93.4%

**Q.** How did the cell count turn out when `O=c1[nH]nc(Sc2ncc([N+](=O)[O-])s2)n1-c1ccc2c(c1)OCCO2` + N.N.[Cl][Pt][Cl] [cisplatin] (first compound 0.2 µM, partner dose 1.6 µM) was run?
**A.** 105%

**Q.** Which cell count does the source give for `C[C@]1(O)C[C@@H](c2nc(-c3ccc4ccc(-c5ccccc5)nc4c3)c3c(N)nccn32)C1` + C[As](C)SC[C@H](NC(=O)CC[C@H](N)C(=O)O)C(=O)NCC(=O)O [Darinaparsin] (first compound 0.4 µM, partner dose 0.4 µM) here?
**A.** 107%

**Q.** For `Cn1sc(=O)n(Cc2ccccc2)c1=O` + C[As](C)SC[C@H](NC(=O)CC[C@H](N)C(=O)O)C(=O)NCC(=O)O [Darinaparsin] (first compound 0.4 µM, partner dose 0.4 µM), which cell count is on record?
**A.** 99.4%

**Q.** How did the cell count turn out when `N#CC[C@H](C1CCCC1)n1cc(-c2ncnc3[nH]ccc23)cn1` [ruxolitinib] + C[As](C)SC[C@H](NC(=O)CC[C@H](N)C(=O)O)C(=O)NCC(=O)O [Darinaparsin] (first compound 1 µM, partner dose 0.4 µM) was run?
**A.** 116%

**Q.** `O=c1[nH]nc(Sc2ncc([N+](=O)[O-])s2)n1-c1ccc2c(c1)OCCO2` + Cn1cc(C2=C(c3cn(C4CCN(Cc5ccccn5)CC4)c4ccccc34)C(=O)NC2=O)c2ccccc21 [Enzastaurin] (first compound 0.2 µM, partner dose 0.8 µM) was tested. Which cell count did it give?
**A.** 90.8%

**Q.** `CCCCCCCCc1ccc(CCC(N)(CO)CO)cc1` [fingolimod] + N.N.[Cl][Pt][Cl] [cisplatin] (first compound 2 µM, partner dose 1.6 µM) was tested. Which cell count did it give?
**A.** 85.6%

**Q.** How did the cell count turn out when `CNC(=O)c1cc(Oc2ccc(NC(=O)Nc3ccc(Cl)c(C(F)(F)F)c3)cc2)ccn1` [sorafenib] + C[As](C)SC[C@H](NC(=O)CC[C@H](N)C(=O)O)C(=O)NCC(=O)O [Darinaparsin] (first compound 0.4 µM, partner dose 0.4 µM) was run?
**A.** 93.7%

**Q.** Which cell count does the source give for `O=C(Nc1cc(C(F)(F)F)cc(C(F)(F)F)c1)c1cc(Cl)ccc1O` + Cn1cc(C2=C(c3cn(C4CCN(Cc5ccccn5)CC4)c4ccccc34)C(=O)NC2=O)c2ccccc21 [Enzastaurin] (first compound 0.016 µM, partner dose 0.8 µM) here?
**A.** 121%

**Q.** Which cell count does the source give for `CC1(C)CCC(c2ccc(Cl)cc2)=C(CN2CCN(c3ccc(C(=O)NS(=O)(=O)c4ccc(N[C@H](CCN5CCOCC5)CSc5ccccc5)c(S(=O)(=O)C(F)(F)F)c4)cc3)CC2)C1` + C[As](C)SC[C@H](NC(=O)CC[C@H](N)C(=O)O)C(=O)NCC(=O)O [Darinaparsin] (first compound 0.4 µM, partner dose 0.4 µM) here?
**A.** 67.3%

**Q.** For `CCN(CC)CCNC(=O)c1c(C)[nH]c(/C=C2\C(=O)Nc3ccc(F)cc32)c1C` [sunitinib] + C[As](C)SC[C@H](NC(=O)CC[C@H](N)C(=O)O)C(=O)NCC(=O)O [Darinaparsin] (first compound 0.4 µM, partner dose 0.4 µM), which cell count is on record?
**A.** 94.1%

**Q.** Which cell count does the source give for `Cc1ccc(Nc2nccc(N(C)c3ccc4c(C)n(C)nc4c3)n2)cc1S(N)(=O)=O` [Pazopanib] + C[C@]12O[C@H](C[C@]1(O)CO)n1c3ccccc3c3c4c(c5c6ccccc6n2c5c31)CNC4=O [Lestaurtinib] (first compound 0.4 µM, partner dose 0.004 µM) here?
**A.** 88.1%

**Q.** `CC[C@]1(O)C[C@H]2CN(CCc3c([nH]c4ccccc34)[C@@](C(=O)OC)(c3cc4c(cc3OC)N(C=O)[C@H]3[C@@](O)(C(=O)OC)[C@H](OC(C)=O)[C@]5(CC)C=CCN6CC[C@]43[C@@H]65)C2)C1` [vincristine] + C[C@]12O[C@H](C[C@]1(O)CO)n1c3ccccc3c3c4c(c5c6ccccc6n2c5c31)CNC4=O [Lestaurtinib] (first compound 0.0001 µM, partner dose 0.004 µM) was tested. Which cell count did it give?
**A.** 58.1%

**Q.** Which cell count does the source give for `CC(=O)c1c(C)c2cnc(Nc3ccc(N4CCNCC4)cn3)nc2n(C2CCCC2)c1=O` [palbociclib] + C[As](C)SC[C@H](NC(=O)CC[C@H](N)C(=O)O)C(=O)NCC(=O)O [Darinaparsin] (first compound 0.04 µM, partner dose 0.4 µM) here?
**A.** 84%

**Q.** For `CC[C@]1(O)C[C@H]2CN(CCc3c([nH]c4ccccc34)[C@@](C(=O)OC)(c3cc4c(cc3OC)N(C=O)[C@H]3[C@@](O)(C(=O)OC)[C@H](OC(C)=O)[C@]5(CC)C=CCN6CC[C@]43[C@@H]65)C2)C1` [vincristine] + Cn1cc(C2=C(c3cn(C4CCN(Cc5ccccn5)CC4)c4ccccc34)C(=O)NC2=O)c2ccccc21 [Enzastaurin] (first compound 0.0001 µM, partner dose 0.8 µM), which cell count is on record?
**A.** 91.7%

**Q.** `CC[C@]1(O)C[C@H]2CN(CCc3c([nH]c4ccccc34)[C@@](C(=O)OC)(c3cc4c(cc3OC)N(C=O)[C@H]3[C@@](O)(C(=O)OC)[C@H](OC(C)=O)[C@]5(CC)C=CCN6CC[C@]43[C@@H]65)C2)C1` [vincristine] + C[As](C)SC[C@H](NC(=O)CC[C@H](N)C(=O)O)C(=O)NCC(=O)O [Darinaparsin] (first compound 0.0001 µM, partner dose 0.4 µM) was tested. Which cell count did it give?
**A.** 53.7%

**Q.** `Cn1sc(=O)n(Cc2ccccc2)c1=O` + C[C@]12O[C@H](C[C@]1(O)CO)n1c3ccccc3c3c4c(c5c6ccccc6n2c5c31)CNC4=O [Lestaurtinib] (first compound 0.4 µM, partner dose 0.004 µM) was tested. Which cell count did it give?
**A.** 105%

**Q.** With `N#CC[C@H](C1CCCC1)n1cc(-c2ncnc3[nH]ccc23)cn1` [ruxolitinib] + Cn1cc(C2=C(c3cn(C4CCN(Cc5ccccn5)CC4)c4ccccc34)C(=O)NC2=O)c2ccccc21 [Enzastaurin] (first compound 1 µM, partner dose 0.8 µM) as the compound, how does the cell count read?
**A.** 112%

**Q.** With `Cc1cn(-c2cc(NC(=O)c3ccc(C)c(Nc4nccc(-c5cccnc5)n4)c3)cc(C(F)(F)F)c2)cn1` [nilotinib] + N.N.[Cl][Pt][Cl] [cisplatin] (first compound 0.2 µM, partner dose 1.6 µM) as the compound, how does the cell count read?
**A.** 86.4%

**Q.** Which cell count does the source give for `CCCS(=O)(=O)Nc1ccc(F)c(C(=O)c2c[nH]c3ncc(Cl)cc23)c1F` + C[As](C)SC[C@H](NC(=O)CC[C@H](N)C(=O)O)C(=O)NCC(=O)O [Darinaparsin] (first compound 0.08 µM, partner dose 0.4 µM) here?
**A.** 98.9%

**Q.** Which cell count does the source give for `N#CC[C@H](C1CCCC1)n1cc(-c2ncnc3[nH]ccc23)cn1` [ruxolitinib] + N.N.[Cl][Pt][Cl] [cisplatin] (first compound 1 µM, partner dose 1.6 µM) here?
**A.** 93.1%

— the supplement of paper PMC4604168 (melanoma cell lines)
